We go through 83 variants from the RNAGym collection of RNA variant scans (doi:10.1073/pnas.2313332121).

Variants at the background level are over-represented here.

B1: TPR 5TU (parent)
chain: GGAUCUUCUCGAUCUAACAAAAAAGACAAAUCUGCCACAAAGCUUGAGAGCAUCUUCGGAUGCAGAGGCGGCAGCCUUCGGUGGCGCGAUAGCGCCAACGUUCUCAACUAUGACACGCAAAACGCGUGCUCCGUUGAAUGGAGUUUAUCAUG

In the series the parent is B1. Nature of the series: polymerase ribozyme fitness, log enrichment relative to wild type (log ratio); higher = more active; in vitro selection for triplet polymerase activity. A digest of the protocol:
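In triplicate, a single round of in vitro selection was run on each mutant library, PCR-built and transcribed, covering one subunit of a heterodimeric triplet polymerase ribozyme. Frozen incubation at −7 °C followed annealing with a biotinylated primer, partner subunit and triplets, and extended constructs were then gel-excised, streptavidin-captured and taken through RT-PCR. Fitness is the logarithm of genotype enrichment over wild-type enrichment, from inverse-variance-weighted replicate averages of Illumina-sequenced inputs and outputs. […] only genotypes with ≥10 input reads and ≥1 read per output were kept.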
As for U53A A66G A91C A121G C123A, the “polymerase ribozyme fitness (log ratio)” value was ≤ -4.2.

Consider C54A G58C A91U C116G C118U A121G, for which the “polymerase ribozyme fitness (log ratio)” value was ≤ -4.2.

Take A52G G100U A107U: the “polymerase ribozyme fitness (log ratio)” value is ≤ -4.2.

A52U U55A A60C C96A A122G A147C: the “polymerase ribozyme fitness (log ratio)” value was ≤ -4.2.

For A52U G67C G94A C95U G117U G126U U130A, the “polymerase ribozyme fitness (log ratio)” value was ≤ -4.2.

For the variant C54A U55G G100A A113U A142U, the “polymerase ribozyme fitness (log ratio)” value was ≤ -4.2.

Turning to C54A C87G, the “polymerase ribozyme fitness (log ratio)” value is ≤ -4.2.

Turning to C54A C87U A91G G143A, the “polymerase ribozyme fitness (log ratio)” value was ≤ -4.2.

For C54A U56C C96A A106C C108A U111A G126C, the “polymerase ribozyme fitness (log ratio)” value is ≤ -4.2.

Take U53G C93U: the “polymerase ribozyme fitness (log ratio)” value is -1.92.

Consider U53A U55G A64G A73C C76U G92C, for which the “polymerase ribozyme fitness (log ratio)” value is ≤ -4.2.

In the case of U53A U55A G65C C75G G83U U101C U146G, the “polymerase ribozyme fitness (log ratio)” value is ≤ -4.2.

Consider U53A C85U G94A U109C U146A, for which the “polymerase ribozyme fitness (log ratio)” value is ≤ -4.2.

U53A C93U U109G: the “polymerase ribozyme fitness (log ratio)” value was ≤ -4.2.

Consider C54A G94C G141A, for which the “polymerase ribozyme fitness (log ratio)” value was -3.13.

In the case of U53A U55A A89G C93A U146G, the “polymerase ribozyme fitness (log ratio)” value is ≤ -4.2.

As for U53G G58A U77A C99A, the “polymerase ribozyme fitness (log ratio)” value was ≤ -4.2.

Consider A52G G141U U145C G152A, for which the “polymerase ribozyme fitness (log ratio)” value was -2.27.

Turning to A52U C93U C114U U127A, the “polymerase ribozyme fitness (log ratio)” value is ≤ -4.2.

Consider C54A C85A C87U G140A A142G, for which the “polymerase ribozyme fitness (log ratio)” value was ≤ -4.2.

C54G A97G: the “polymerase ribozyme fitness (log ratio)” value was -0.818.

For U53A G83U A147C, the “polymerase ribozyme fitness (log ratio)” value is -1.91.

As to U53A C96A U102A U139G G141A, the “polymerase ribozyme fitness (log ratio)” value was ≤ -4.2.

Take U53A G86C A91U: the “polymerase ribozyme fitness (log ratio)” value was ≤ -4.2.

For U53G G59C U61A G88C G94U, the “polymerase ribozyme fitness (log ratio)” value was ≤ -4.2.

As to U53A C99U U134A, the “polymerase ribozyme fitness (log ratio)” value was -3.7.

As for U53C C118U C129G G141A, the “polymerase ribozyme fitness (log ratio)” value is ≤ -4.2.

With A52G U53A G80A G92C, the “polymerase ribozyme fitness (log ratio)” value is ≤ -4.2.

C54A A121U G141C: the “polymerase ribozyme fitness (log ratio)” value was -1.65.

Regarding A52G U56A G68U C87A U145G, the “polymerase ribozyme fitness (log ratio)” value is ≤ -4.2.

For the variant C54A A73G G86A A150G, the “polymerase ribozyme fitness (log ratio)” value is ≤ -4.2.

On to U53A C79U G136A, for which the “polymerase ribozyme fitness (log ratio)” value is ≤ -4.2.

C54G A60G C95G: the “polymerase ribozyme fitness (log ratio)” value is -2.44.

Consider U53A G70C C85U U151C, for which the “polymerase ribozyme fitness (log ratio)” value is ≤ -4.2.

On to A52U C76G C108U C125A, for which the “polymerase ribozyme fitness (log ratio)” value was ≤ -4.2.

Take C54A C132A U139C: the “polymerase ribozyme fitness (log ratio)” value was ≤ -4.2.

C54A G58A G71U G117C A137G: the “polymerase ribozyme fitness (log ratio)” value was ≤ -4.2.

Consider U53A C93A A106C U130A, for which the “polymerase ribozyme fitness (log ratio)” value is ≤ -4.2.

With C54A A64U G74U U130G, the “polymerase ribozyme fitness (log ratio)” value is ≤ -4.2.

For A52G U53G C57G G68C G81C C87U G140U, the “polymerase ribozyme fitness (log ratio)” value was ≤ -4.2.

For U53G U61A U78C A91U A107C C116U G140C, the “polymerase ribozyme fitness (log ratio)” value is ≤ -4.2.

Consider U53G U148C, for which the “polymerase ribozyme fitness (log ratio)” value is ≤ -4.2.

With A52U U55A G65U C93G, the “polymerase ribozyme fitness (log ratio)” value is ≤ -4.2.

For U53G C99A G117U, the “polymerase ribozyme fitness (log ratio)” value was ≤ -4.2.

Consider U53A G100A A110G A142C, for which the “polymerase ribozyme fitness (log ratio)” value was ≤ -4.2.

On to U53A C95U C96U A119U G152U, for which the “polymerase ribozyme fitness (log ratio)” value is ≤ -4.2.

For the variant C54A G92A, the “polymerase ribozyme fitness (log ratio)” value was ≤ -4.2.

For U53C C76G A121G A147U, the “polymerase ribozyme fitness (log ratio)” value is ≤ -4.2.

Take C54A U61C C63A G67A G86A C103A U145G C149U: the “polymerase ribozyme fitness (log ratio)” value is ≤ -4.2.

Take A52U U55A A115U C118A G126U A150U: the “polymerase ribozyme fitness (log ratio)” value was ≤ -4.2.

As to U53A G70A G71C G141C, the “polymerase ribozyme fitness (log ratio)” value is ≤ -4.2.

As for A52U U55A G68U, the “polymerase ribozyme fitness (log ratio)” value is ≤ -4.2.

Take C54A U90A A91G: the “polymerase ribozyme fitness (log ratio)” value is ≤ -4.2.

In the case of U53A G58U C85G G92A C96G, the “polymerase ribozyme fitness (log ratio)” value was ≤ -4.2.

Turning to U53G G83C G86U, the “polymerase ribozyme fitness (log ratio)” value was ≤ -4.2.

As to U53G C103A C105G U130A, the “polymerase ribozyme fitness (log ratio)” value is ≤ -4.2.

For the variant A52G U61C U77C G84C, the “polymerase ribozyme fitness (log ratio)” value was ≤ -4.2.

For A52U U53A A60U U61G C93G C96G C132G G133C C149U, the “polymerase ribozyme fitness (log ratio)” value is ≤ -4.2.

For C54A G58C U77G, the “polymerase ribozyme fitness (log ratio)” value was ≤ -4.2.

Consider C54G A89U A91U G92U A107U, for which the “polymerase ribozyme fitness (log ratio)” value is ≤ -4.2.

U53A G152U: the “polymerase ribozyme fitness (log ratio)” value is -3.33.

As for A52G U56A C85A G94C C99G U104G G136A, the “polymerase ribozyme fitness (log ratio)” value was ≤ -4.2.

For U53A G83A, the “polymerase ribozyme fitness (log ratio)” value was -1.64.

In the case of C54A C116G, the “polymerase ribozyme fitness (log ratio)” value is -0.685.

C54A C75A C85U: the “polymerase ribozyme fitness (log ratio)” value was ≤ -4.2.

With U53C G58C C93U C96G G140A, the “polymerase ribozyme fitness (log ratio)” value was -4.1.

Consider A52U C96G A97G C108G, for which the “polymerase ribozyme fitness (log ratio)” value is ≤ -4.2.

Consider U53A C85A C93U G141C U151A, for which the “polymerase ribozyme fitness (log ratio)” value was ≤ -4.2.

As to U53G C79G A91C U109A, the “polymerase ribozyme fitness (log ratio)” value is ≤ -4.2.

Regarding U53G G74A C114G, the “polymerase ribozyme fitness (log ratio)” value was ≤ -4.2.

As for C54A G65U, the “polymerase ribozyme fitness (log ratio)” value was ≤ -4.2.

Consider C54A U82C U146C, for which the “polymerase ribozyme fitness (log ratio)” value was -0.537.

On to U53G U55A U82C G143U, for which the “polymerase ribozyme fitness (log ratio)” value is ≤ -4.2.

As for C54A G86U U130C A142C, the “polymerase ribozyme fitness (log ratio)” value was ≤ -4.2.

As for U53A G83C A115G C116U A150C, the “polymerase ribozyme fitness (log ratio)” value was ≤ -4.2.

For U53A C132U, the “polymerase ribozyme fitness (log ratio)” value was -1.73.

For the variant A52U U77G G80C G81A C85U, the “polymerase ribozyme fitness (log ratio)” value was ≤ -4.2.

With U53G C79A C87A U102G, the “polymerase ribozyme fitness (log ratio)” value was ≤ -4.2.

As for U53A G92A U146C C149A G152U, the “polymerase ribozyme fitness (log ratio)” value was ≤ -4.2.

As for U53A U55G C79U G92A G94U G128U U134A U146G, the “polymerase ribozyme fitness (log ratio)” value is ≤ -4.2.

For the variant U53G U56G C79A U90C, the “polymerase ribozyme fitness (log ratio)” value was ≤ -4.2.

For U53A U55C A66C C103A C105G, the “polymerase ribozyme fitness (log ratio)” value is ≤ -4.2.

Take U53A G81C C85G C108U A138G A147G A150U G152U: the “polymerase ribozyme fitness (log ratio)” value was -3.91.
